The source of these data is US20140154256A1 (published 2014).

In assay [1] the target is T1, human IL-12 (human, UniProt P29459 23-219; P29460 23-328).
T1 construct: also called hIL-12
T1 sequence (looked up) 1: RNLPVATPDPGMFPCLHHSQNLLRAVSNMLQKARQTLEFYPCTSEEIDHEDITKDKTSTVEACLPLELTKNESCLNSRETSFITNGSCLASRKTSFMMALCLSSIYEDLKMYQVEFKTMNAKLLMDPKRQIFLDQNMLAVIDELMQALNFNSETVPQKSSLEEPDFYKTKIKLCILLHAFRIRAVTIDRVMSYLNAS
T1 sequence (looked up) 2: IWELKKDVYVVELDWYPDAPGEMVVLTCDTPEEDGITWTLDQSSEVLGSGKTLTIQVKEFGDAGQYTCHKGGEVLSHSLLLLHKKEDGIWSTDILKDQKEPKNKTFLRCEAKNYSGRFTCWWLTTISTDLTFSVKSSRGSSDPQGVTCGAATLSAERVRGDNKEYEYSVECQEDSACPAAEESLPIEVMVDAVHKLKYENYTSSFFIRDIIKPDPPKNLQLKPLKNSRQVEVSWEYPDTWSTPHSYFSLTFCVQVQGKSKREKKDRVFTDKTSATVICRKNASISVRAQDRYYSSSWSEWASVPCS
The experiment in a line: SPR (Biacore).

Assay [2] has as its target T2, human IL-18 (human, UniProt Q14116 37-193).
T2 construct: also called hIL-18
The experiment in a line: SPR (Biacore). On the technique in general: In SPR one partner is held on a chip, and binding of the other changes the refractive index at the surface.

Assay [3] addresses T1, human IL-12. The experiment in a line: cell-based or functional assay.
In assay [4] the target is T2, human IL-18. The experiment in a line: cell-based or functional assay.
The target of assay [5] is T1, human IL-12. The experiment in a line: cell-based or functional assay. This is another data set of the same source.
Assay [6] concerns the target T2, human IL-18. The experiment in a line: cell-based or functional assay. This is another data set of the same source.
In assay [7] the target is T1, human IL-12. The experiment in a line: SPR (Biacore). This is another data set of the same source.
The target in assay [8] is T2, human IL-18. The experiment in a line: SPR (Biacore). The source holds these as a separate data set.
The target of assay [9] is T2, human IL-18. The experiment in a line: SPR (Biacore). The source holds these as a separate data set.
Assay [10] deals with T1, human IL-12. The experiment in a line: cell-based or functional assay. This is another data set of the same source.
In assay [11] the target is T2, human IL-18. The experiment in a line: cell-based or functional assay. The source holds these as a separate data set.

In general, Kd refers to the free concentration of one partner at which half of the binding sites on the other are occupied at equilibrium, for simple one-to-one binding. Low values mean a tighter complex, high ones a looser complex.

Where two headings read alike, the source gives them in different places.

B1: DVD1218LL (anti-IL12/IL18 DVD-Ig, 12-18-C, long linker) (bispecific antibody, human IgG1, kappa, lambda)
heavy: QVQLVESGGGVVQPGRSLRLSCAASGFTFSSYGMHWVRQAPGKGLEWVAFIRYDGSNKYYADSVKGRFTISRDNSKNTLYLQMNSLRAEDTAVYYCKTHGSHDNWGQGTMVTVSSASTKGPSVFPLAPEVQLVQSGTEVKKPGESLKISCKGSGYTVTSYWIGWVRQMPGKGLEWMGFIYPGDSETRYSPTFQGQVTISADKSFNTAFLQWSSLKASDTAMYYCARVGSGWYPYTFDIWGQGTMVTVSS[letters of human IgG1 constant region left out]
light: QSVLTQPPSVSGAPGQRVTISCSGSRSNIGSNTVKWYQQLPGTAPKLLIYYNDQRPSGVPDRFSGSKSGTSASLAITGLQAEDEADYYCQSYDRYTHPALLFGTGTKVTVLGQPKAAPSVTLFPPEIVMTQSPATLSVSPGERATLSCRASESISSNLAWYQQKPGQAPRLFIYTASTRATDIPARFSGSGSGTEFTLTISSLQSEDFAVYYCQQYNNWPSITFGQGTRLEIKRTVAAPSVFIFPPSDEQLKSGTASVVCLLNNFYPREAKVQWKVDNALQSGNSQESVTEQDSKDSTYSLSSTLTLSKADYEKHKVYACEVTHQGLSSPVTKSFNRGEC
notes: also called DVD1218HC-LL / DVD1218LC-LL
Regarding B1, the Kd worked out at 0.0238 nM in the assay with human IL-12 [1] and 0.664 nM with human IL-18 [2]. Besides, the “Potency (IC50, M), IL-12-induced IFN-γ production by PHA blast cells” value with human IL-12 [3] was 3.04e-12 M. Further, in the assay with human IL-18 [4], the “Potency (IC50, M), KG-1 bioassay (IFN-γ production)” value was 1.8e-10 M.

B2: 1D4.1-ABT325 DVD-Ig (bispecific antibody, human IgG1, kappa)
heavy: EVTLRESGPALVKPTQTLTLTCTFSGFSLSKSVMGVSWIRQPPGKALEWLAHIYWDDDKYYNPSLKSRLTISKDTSKNQVVLTMTNMDPVDTATYYCARRGIRSAMDYWGQGTTVTVSSASTKGPEVQLVQSGTEVKKPGESLKISCKGSGYTVTSYWIGWVRQMPGKGLEWMGFIYPGDSETRYSPTFQGQVTISADKSFNTAFLQWSSLKASDTAMYYCARVGSGWYPYTFDIWGQGTMVTVSS[letters of human IgG1 constant region left out]
light: DIVMTQSPDSLAVSLGERATINCKASQSVSNDVAWYQQKPGQPPKLLIYYASNRYTGVPDRFSGSGSGTDFTLTISSLQAEDVAVYYCQQDYNSPWTFGGGTKVEIKRTVAAPEIVMTQSPATLSVSPGERATLSCRASESISSNLAWYQQKPGQAPRLFIYTASTRATDIPARFSGSGSGTEFTLTISSLQSEDFAVYYCQQYNNWPSITFGQGTRLEIKRTVAAPSVFIFPPSDEQLKSGTASVVCLLNNFYPREAKVQWKVDNALQSGNSQESVTEQDSKDSTYSLSSTLTLSKADYEKHKVYACEVTHQGLSSPVTKSFNRGEC
notes: Short linkers ASTKGP / TVAAP
For B2, the “Potency (IC50, M), PBMC assay (IL-12)” value with human IL-12 [5] stood at 2.17e-10 M. For the same molecule, the “Potency (IC50, M), KG-1 bioassay (IL-18)” value with human IL-18 [6] worked out at 1.2e-10 M. Moreover, the Kd with human IL-12 [7] is 0.133 nM; in the assay with human IL-18 [8] it was 0.159 nM.

B3: DVD1218SL (anti-IL12/IL18 DVD-Ig, 12-18-C, short linker) (bispecific antibody, human IgG1, kappa)
heavy: QVQLVESGGGVVQPGRSLRLSCAASGFTFSSYGMHWVRQAPGKGLEWVAFIRYDGSNKYYADSVKGRFTISRDNSKNTLYLQMNSLRAEDTAVYYCKTHGSHDNWGQGTMVTVSSASTKGPEVQLVQSGTEVKKPGESLKISCKGSGYTVTSYWIGWVRQMPGKGLEWMGFIYPGDSETRYSPTFQGQVTISADKSFNTAFLQWSSLKASDTAMYYCARVGSGWYPYTFDIWGQGTMVTVSS[letters of human IgG1 constant region left out]
light: QSVLTQPPSVSGAPGQRVTISCSGSRSNIGSNTVKWYQQLPGTAPKLLIYYNDQRPSGVPDRFSGSKSGTSASLAITGLQAEDEADYYCQSYDRYTHPALLFGTGTKVTVLGQPKAAPEIVMTQSPATLSVSPGERATLSCRASESISSNLAWYQQKPGQAPRLFIYTASTRATDIPARFSGSGSGTEFTLTISSLQSEDFAVYYCQQYNNWPSITFGQGTRLEIKRTVAAPSVFIFPPSDEQLKSGTASVVCLLNNFYPREAKVQWKVDNALQSGNSQESVTEQDSKDSTYSLSSTLTLSKADYEKHKVYACEVTHQGLSSPVTKSFNRGEC
notes: also called DVD1218HC-SL / DVD1218LC-SL
On to B3, for which the values for the Kd in the assay with human IL-12 [1], in the assay with human IL-18 [2] and with human IL-18 [9] were 0.0381 nM, 0.622 nM and 0.622 nM, respectively. For the same molecule, the “Potency (IC50, M), IL-12-induced IFN-γ production by PHA blast cells” value in the assay with human IL-12 [3] was determined as 6.93e-12 M. For the same molecule, the “Potency (IC50, M), KG-1 bioassay (IFN-γ production)” value with human IL-18 [4] came to 1.8e-10 M. Further, the “Potency (IC50), PHA-Blast Assay” value with human IL-12 [10] turned out to be 0.007 nM. The “Potency (IC50), KG-1 Assay” value with human IL-18 [11] is 0.18 nM.
